Values marked as one replicate rest on one cluster of the flow cell; about a third of the high ones do not repeat.
Each sequence was assayed on ATP (assay: switch fluorescence ratio, 500 uM ATP over buffer (Cy3 cluster intensity, sum of 5 cycles each) (fold (ratio)); higher = stronger signal-on switching upon ATP binding; sequences stand for … in TCGTCGGCAGCGTCAGATGTGTATAAGAGACAGTTTTTTTTTTTTTTTTTTTTTTTTT…TC). Settings: aptamer strand: ATP DNA aptamer (quencher-CACCTGGGGGAGTATTGCGGAGGAAGG + anchor), 100 nM annealed; ATP concentration: 500 uM; one replicate.
In short: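 Imaging in selection buffer was followed by imaging after 15 min with 500 uM ATP at 22 °C, for Cy3-labelled switching-strand clusters annealed to 100 nM quencher-labelled ATP aptamer on a modified Illumina MiSeq flow-cell. Five of these buffer/ATP cycles ran, separated by NaOH stripping and re-annealing. The fluorescence ratio per cluster is summed target-cycle over summed buffer-cycle Cy3 intensity, averaged per switch-domain sequence; clusters outside 100-1000 RFU were removed.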
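Note: ATP exposure 15 min at 22 °C before imaging.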

| Sequence | switch fluorescence ratio |
| --- | --- |
| ATAGATATGG | 0.96 |
| ATAGCAAAAA | 2.96 |
| ATAGCATGAT | 1.03 |
| ATAGCCAAAA | 1 |
| ATAGCCCGCA | 0.995 |
| ATAGCCGAAA | 1.01 |
| ATAGCCTAGT | 0.982 |
| ATAGCGGCCG | 1.04 |
| ATAGCTGAT | 1.01 |
| ATAGGATGTC | 0.884 |
| ATAGGCCATC | 0.981 |
| ATAGGCCTTA | 1.02 |
| ATAGGGACGT | 1.02 |
| ATAGGGTGT | 1.02 |
| ATAGGGTGTT | 1.03 |
| ATAGGTATAT | 1.03 |
| ATAGGTTAAC | 0.957 |
| ATAGTAAGGG | 0.934 |
| ATAGTAATTT | 0.956 |
| ATAGTAGAAG | 0.964 |
| ATAGTAGAGA | 1.01 |
| ATAGTATTAC | 1.08 |
| ATAGTCCTAC | 1.05 |
| ATAGTCGGCG | 0.943 |
| ATAGTCTGA | 0.984 |

| Sequence | switch fluorescence ratio |
| --- | --- |
| ATAGTCTTGG | 0.938 |
| ATAGTGAGAG | 1.04 |
| ATAGTGGCGT | 0.965 |
| ATAGTGTAC | 1.08 |
| ATAGTGTTT | 0.966 |
| ATAGTTCCTG | 1.01 |
| ATAGTTGCAA | 0.999 |
| ATATAAGAGG | 0.977 |
| ATATACAAGT | 1.02 |
| ATATACACTC | 1.05 |
| ATATACACTG | 1.11 |
| ATATAGCCGC | 1.06 |
| ATATAGCGTA | 1.04 |
| ATATAGGCTT | 1 |
| ATATATAATA | 1.01 |
| ATATATGTGT | 0.948 |
| ATATATTGGG | 1.01 |
| ATATCATTCC | 1.42 |
| ATATCCATTG | 0.982 |
| ATATCCCAGC | 1.02 |
| ATATCCCGCT | 1.08 |
| ATATCCTACG | 1.23 |
| ATATCGGTGA | 0.984 |
| ATATCTAGT | 0.936 |
| ATATCTGGT | 0.944 |

| Sequence | switch fluorescence ratio |
| --- | --- |
| ATATGATTCA | 0.98 |
| ATATGCGCTT | 1.02 |
| ATATGGAGCC | 0.974 |
| ATATGTATTT | 1.01 |
| ATATTAGGCC | 1.03 |
| ATATTATCG | 1.03 |
| ATATTATT | 0.976 |
| ATATTCAGGC | 0.97 |
| ATATTCATTG | 0.96 |
| ATATTCGAGA | 0.971 |
| ATATTGGGC | 0.989 |
| ATATTGTTCG | 0.962 |
| ATATTTAAAT | 1.14 |
| ATATTTACG | 1.03 |
| ATATTTCAG | 0.999 |
| ATATTTGGGA | 0.988 |
| ATATTTGGT | 0.997 |
| ATCAACTCAC | 1.16 |
| ATCAAGAGAA | 0.995 |
| ATCAAGGGAA | 1.08 |
| ATCAAGTAGG | 1.03 |
| ATCAAGTCGA | 1.03 |
| ATCACCTTCA | 2.16 |
| ATCACGAAGC | 1.08 |
| ATCACGAAGG | 1.04 |

| Sequence | switch fluorescence ratio |
| --- | --- |
| ATCACGATAC | 1.88 |
| ATCACTATGG | 1.01 |
| ATCACTCGCG | 1.04 |
| ATCAGAAGGC | 0.94 |
| ATCAGAGGAG | 0.989 |
| ATCAGCGGGC | 1.08 |
| ATCAGGAACT | 1.03 |
| ATCAGGAGGC | 1.03 |
| ATCAGGCATG | 1.02 |
| ATCAGTAAGG | 0.997 |
| ATCAGTCAGG | 1.01 |
| ATCATAGGCG | 0.947 |
| ATCATAGGGA | 0.942 |
| ATCATCAGTA | 0.984 |
| ATCATCCTT | 1.04 |
| ATCATCGGCA | 1.09 |
| ATCATGCTGC | 1.03 |
| ATCATGTTTT | 0.968 |
| ATCATTGAT | 0.985 |
| ATCATTGTTG | 1.01 |
| ATCCAACCGT | 1.03 |
| ATCCAATCCT | 1.09 |
| ATCCATGTG | 1.07 |
| ATCCCAATGA | 1.29 |
| ATCCCAGTCG | 1.03 |
